# Laboratory results reported in paper PMC5892938.
# This is one part of the list. At the low end of the ranking, values are background and their order means little.
# Molecular target: GST-SBP-SLBP (stem-loop binding protein) (UniProt Q14493)
# Assay: targeted RNA Bind-n-Seq;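 note: DESeq read counts versus GST-SBP nonspecific binding control pulldown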
# Conditions: RBNS binding buffer: 25 mM Tris pH 7.5, 150 mM KCl, 3 mM MgCl2, 0.1% Tween, 0.5 mg/mL BSA, 1 mM DTT; 27 nM protein, 750 pM RNA pool; temperature not stated; high values mean tight binding
row,Sequence,binding signal (log2 fold change)
1,GGUCACGUCUCAAUCAACUCUCAAGAGGGGGGGAAAACCCCUUUACCCUCAUCCUCAACAGCUCGCAGUCAAG,0.268
2,GGUCACGUCUCAAUCAACUCUAAAGAGGGGGGGAAAACCCCUUUACCCUCAUCAUCAACAGCUCGCAGUCAAG,0.394
3,GGUCACGUCUCAAUCAACUCUACUCCAGGAGUUUACUCCUGUUUACUCAACAGCUCGCAGUCAAG,0.0389
4,GGUCACGUCUCAAUCAACUCAAGUCCAGGAGUUUCCUCCUGCAAUUUCAACAGCUCGCAGUCAAG,-0.0413
5,GGUCACGUCUCAAUCAACUCUACUCCCAGGGAAAACCCUGGUUAACUCAACAGCUCGCAGUCAAG,-0.162
6,GGUCACGUCUCAAUCAACUCUUCCCCCAGGGAAAACCCUGGCUUAUUCAACAGCUCGCAGUCAAG,-0.0147
7,GGUCACGUCUCAAUCAACUCAUCGUCCAGGGAAAUCCCUGGUAAAUUCAACAGCUCGCAGUCAAG,0.173
8,GGUCACGUCUCAAUCAACUCUUUCCCCAGGGAAAGCCCUGGUUUUCUCAACAGCUCGCAGUCAAG,-0.0228
9,GGUCACGUCUCAAUCAACUCCCCAGAGGGGGGGAAAACCCCUUUACCCUCACUCUCAACAGCUCGCAGUCAAG,0.142
10,GGUCACGUCUCAAUCAACUCAGUCUCAGGAGUUUGCUCCUGCUAUUUCAACAGCUCGCAGUCAAG,0.092
11,GGUCACGUCUCAAUCAACUCAUCGUCAGGAGUUUCCUCCUGCAUUCUCAACAGCUCGCAGUCAAG,0.149
12,GGUCACGUCUCAAUCAACUCAUUCCCAGGAGUUUACUCCUGCUAACUCAACAGCUCGCAGUCAAG,0.364
13,GGUCACGUCUCAAUCAACUCAACUCCAGGAGUUUACUCCUGCAAUUUCAACAGCUCGCAGUCAAG,0.14
14,GGUCACGUCUCAAUCAACUCAAUUUCAGGAGUUUUCUCCUGUUUUUUCAACAGCUCGCAGUCAAG,-0.0678
15,GGUCACGUCUCAAUCAACUCAUCGUCCAGGGAAAGCCCUGGUAAAUUCAACAGCUCGCAGUCAAG,-0.243
16,GGUCACGUCUCAAUCAACUCAUUUCCAGGAGUUUCCUCCUGCUUACUCAACAGCUCGCAGUCAAG,0.00712
17,GGUCACGUCUCAAUCAACUCAUUUUCCAGGGAAAUCCCUGGCUUAGUCAACAGCUCGCAGUCAAG,-0.0752
18,GGUCACGUCUCAAUCAACUCAUCUCCCAGGGAAAACCCUGGUUAUCUCAACAGCUCGCAGUCAAG,-0.107
19,GGUCACGUCUCAAUCAACUCAAUUCCAGGAGUUUCCUCCUGUUUACUCAACAGCUCGCAGUCAAG,-0.0693
20,GGUCACGUCUCAAUCAACUCUAUAGAGGGGGGGAAAACCCCUUUACCCUCGUAAUCAACAGCUCGCAGUCAAG,-0.125
21,GGUCACGUCUCAAUCAACUCUUUUCCCAGGGAAAGCCCUGGUUUAUUCAACAGCUCGCAGUCAAG,-0.186
22,GGUCACGUCUCAAUCAACUCCUUAGAGGGGGGGAAAACCCCUUUACCCUCCCAUUCAACAGCUCGCAGUCAAG,-0.384
23,GGUCACGUCUCAAUCAACUCUAUCCCAGGAGUUUACUCCUGCAAUCUCAACAGCUCGCAGUCAAG,0.291
24,GGUCACGUCUCAAUCAACUCAAGGUCAGGAGUUUUCUCCUGUUAAUUCAACAGCUCGCAGUCAAG,0.201
25,GGUCACGUCUCAAUCAACUCAAUCUCCAGGGAAACCCCUGGCUAUGUCAACAGCUCGCAGUCAAG,0.176

row,Sequence,binding signal (log2 fold change)
1,GGUCACGUCUCAAUCAACUCUACUCCCAGGGAAAACCCUGGCUUACUCAACAGCUCGCAGUCAAG,-0.211
2,GGUCACGUCUCAAUCAACUCUAUUCCCAGGGAAAUCCCUGGUUUUUUCAACAGCUCGCAGUCAAG,-0.129
3,GGUCACGUCUCAAUCAACUCAAACGAGGGGGGGAAAACCCCUUUGCCCUCACAUUCAACAGCUCGCAGUCAAG,-0.0277
4,GGUCACGUCUCAAUCAACUCACAAGAGGGGGGGAAAACCCCUUUACCCUCAUCCUCAACAGCUCGCAGUCAAG,-0.232
5,GGUCACGUCUCAAUCAACUCAUUUUCCAGGGAAACCCCUGGCAUACUCAACAGCUCGCAGUCAAG,0.224
6,GGUCACGUCUCAAUCAACUCAACUUCCAGGGAAAGCCCUGGCUAAUUCAACAGCUCGCAGUCAAG,0.26
7,GGUCACGUCUCAAUCAACUCAUCUCCAGGAGUUUCCUCCUGCAAACUCAACAGCUCGCAGUCAAG,0.0075
8,GGUCACGUCUCAAUCAACUCAUCCUCAGGAGUUUACUCCUGCAUACUCAACAGCUCGCAGUCAAG,0.156
9,GGUCACGUCUCAAUCAACUCAACUCCAGGAGUUUCCUCCUGUUAUCUCAACAGCUCGCAGUCAAG,-0.0554
10,GGUCACGUCUCAAUCAACUCUUCCCCAGGAGUUUCCUCCUGUAUACUCAACAGCUCGCAGUCAAG,0.19
11,GGUCACGUCUCAAUCAACUCUACUUCAGGAGUUUACUCCUGCUUUUUCAACAGCUCGCAGUCAAG,-0.21
12,GGUCACGUCUCAAUCAACUCAUUAGAGGGGGGGAAAACCCCUUUACCCUCAUCAUCAACAGCUCGCAGUCAAG,0.333
13,GGUCACGUCUCAAUCAACUCUUACGAGGGGGGGAAAACCCCUUUACCCUCUCCAUCAACAGCUCGCAGUCAAG,0.136
14,GGUCACGUCUCAAUCAACUCUUUCUCCAGGGAAAUCCCUGGUAUUCUCAACAGCUCGCAGUCAAG,0.148
15,GGUCACGUCUCAAUCAACUCUUUAGAGGGGGGGAAAACCCCUUUACCCUCACUUUCAACAGCUCGCAGUCAAG,-0.553
16,GGUCACGUCUCAAUCAACUCAAGUCCCAGGGAAAGCCCUGGUUUAUUCAACAGCUCGCAGUCAAG,-0.113
17,GGUCACGUCUCAAUCAACUCAAUAGAGGGGGGGAAAACCCCUUUGCCCUCGAAAUCAACAGCUCGCAGUCAAG,0.399
18,GGUCACGUCUCAAUCAACUCUUUUCCAGGAGUUUCCUCCUGCAUUCUCAACAGCUCGCAGUCAAG,0.153
19,GGUCACGUCUCAAUCAACUCCUUAGAGGGGGGGAAAACCCCUUUACCCUCACUAUCAACAGCUCGCAGUCAAG,0.225
20,GGUCACGUCUCAAUCAACUCUUUUCCAGGAGUUUUCUCCUGCUAUGUCAACAGCUCGCAGUCAAG,0.163
21,GGUCACGUCUCAAUCAACUCAUCGUCCAGGGAAACCCCUGGUAUAUUCAACAGCUCGCAGUCAAG,-0.238
22,GGUCACGUCUCAAUCAACUCUUCUCCAGGAGUUUACUCCUGUAAUCUCAACAGCUCGCAGUCAAG,0.129
23,GGUCACGUCUCAAUCAACUCAUCCCCCAGGGAAAUCCCUGGUUAUUUCAACAGCUCGCAGUCAAG,-0.0122
24,GGUCACGUCUCAAUCAACUCUACGCCAGGAGUUUCCUCCUGUAUAUUCAACAGCUCGCAGUCAAG,0.163
25,GGUCACGUCUCAAUCAACUCAAUCCCAGGAGUUUUCUCCUGCAUAUUCAACAGCUCGCAGUCAAG,0.294

row,Sequence,binding signal (log2 fold change)
1,GGUCACGUCUCAAUCAACUCUUCUUCAGGAGUUUACUCCUGCAAACUCAACAGCUCGCAGUCAAG,0.129
2,GGUCACGUCUCAAUCAACUCAUCGUCCAGGGAAAGCCCUGGUAUUUUCAACAGCUCGCAGUCAAG,0.0993
3,GGUCACGUCUCAAUCAACUCUUCUCCAGGAGUUUACUCCUGCAUUUUCAACAGCUCGCAGUCAAG,0.0632
4,GGUCACGUCUCAAUCAACUCUCUAGAGGGGGGGAAAACCCCUUUGCCCUCAUAAUCAACAGCUCGCAGUCAAG,0.0506
5,GGUCACGUCUCAAUCAACUCUACUUCAGGAGUUUCCUCCUGUAUUUUCAACAGCUCGCAGUCAAG,-0.132
6,GGUCACGUCUCAAUCAACUCUACUUCAGGAGUUUACUCCUGUAUACUCAACAGCUCGCAGUCAAG,0.0242
7,GGUCACGUCUCAAUCAACUCAUUUCCAGGAGUUUACUCCUGCAUUUUCAACAGCUCGCAGUCAAG,-0.0545
8,GGUCACGUCUCAAUCAACUCUUUCGAGGGGGGGAAAACCCCUUUACCCUCUCAUUCAACAGCUCGCAGUCAAG,-0.0772
9,GGUCACGUCUCAAUCAACUCUUCUUCCAGGGAAAUCCCUGGCAAAUUCAACAGCUCGCAGUCAAG,0.0914
10,GGUCACGUCUCAAUCAACUCAACUUCAGGAGUUUACUCCUGCUUUUUCAACAGCUCGCAGUCAAG,-0.195
11,GGUCACGUCUCAAUCAACUCAUUCGAGGGGGGGAAAACCCCUUUACCCUCUUUAUCAACAGCUCGCAGUCAAG,-0.487
12,GGUCACGUCUCAAUCAACUCAUUAGAGGGGGGGAAAACCCCUUUACCCUCACUAUCAACAGCUCGCAGUCAAG,0.122
13,GGUCACGUCUCAAUCAACUCAAUUUCAGGAGUUUACUCCUGUUAACUCAACAGCUCGCAGUCAAG,0.158
14,GGUCACGUCUCAAUCAACUCAUUCUCCAGGGAAACCCCUGGCUAUCUCAACAGCUCGCAGUCAAG,0.176
15,GGUCACGUCUCAAUCAACUCAUCCUCAGGAGUUUUCUCCUGCUAAGUCAACAGCUCGCAGUCAAG,0.0588
16,GGUCACGUCUCAAUCAACUCUUCGUCCAGGGAAAACCCUGGCUUAUUCAACAGCUCGCAGUCAAG,0.00619
17,GGUCACGUCUCAAUCAACUCGUUUUCAGGAGUUUACUCCUGCUUUUUCAACAGCUCGCAGUCAAG,-0.0659
18,GGUCACGUCUCAAUCAACUCCUUAGAGGGGGGGAAAACCCCUUUACCCUCACCGUCAACAGCUCGCAGUCAAG,-0.0529
19,GGUCACGUCUCAAUCAACUCAUCUUCAGGAGUUUACUCCUGUUAAUUCAACAGCUCGCAGUCAAG,-0.00644
20,GGUCACGUCUCAAUCAACUCUUUAGAGGGGGGGAAAACCCCUUUGCCCUCGUUUUCAACAGCUCGCAGUCAAG,0.083
21,GGUCACGUCUCAAUCAACUCUUCAGAGGGGGGGAAAACCCCUUUACCCUCAUCCUCAACAGCUCGCAGUCAAG,-0.175
22,GGUCACGUCUCAAUCAACUCAUCCUCCAGGGAAAACCCUGGCAUACUCAACAGCUCGCAGUCAAG,-0.167
23,GGUCACGUCUCAAUCAACUCUAUCGCAGGAGUUUUCUCCUGGUAACUCAACAGCUCGCAGUCAAG,-0.0754
24,GGUCACGUCUCAAUCAACUCAUUCUCAGGAGUUUUCUCCUGCUUACUCAACAGCUCGCAGUCAAG,-0.0853
